The campaign covered roughly 310,000 compounds. About 14,000 (4.5%) showed an effect of 50% or more. The effect is printed as a negative number. This is one part of the list.
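Note: peak tail current of the secondary pulse compared with the same well before compound.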

The experiment deals with human ether-à-go-go-related gene (hERG) potassium channel (human, UniProt Q12809). The experiment is described as follows: primary screen, population patch clamp on CHO cells stably expressing hERG.
human ether-à-go-go-related gene (hERG) potassium channel, sequence (Q12809 whole entry, looked up): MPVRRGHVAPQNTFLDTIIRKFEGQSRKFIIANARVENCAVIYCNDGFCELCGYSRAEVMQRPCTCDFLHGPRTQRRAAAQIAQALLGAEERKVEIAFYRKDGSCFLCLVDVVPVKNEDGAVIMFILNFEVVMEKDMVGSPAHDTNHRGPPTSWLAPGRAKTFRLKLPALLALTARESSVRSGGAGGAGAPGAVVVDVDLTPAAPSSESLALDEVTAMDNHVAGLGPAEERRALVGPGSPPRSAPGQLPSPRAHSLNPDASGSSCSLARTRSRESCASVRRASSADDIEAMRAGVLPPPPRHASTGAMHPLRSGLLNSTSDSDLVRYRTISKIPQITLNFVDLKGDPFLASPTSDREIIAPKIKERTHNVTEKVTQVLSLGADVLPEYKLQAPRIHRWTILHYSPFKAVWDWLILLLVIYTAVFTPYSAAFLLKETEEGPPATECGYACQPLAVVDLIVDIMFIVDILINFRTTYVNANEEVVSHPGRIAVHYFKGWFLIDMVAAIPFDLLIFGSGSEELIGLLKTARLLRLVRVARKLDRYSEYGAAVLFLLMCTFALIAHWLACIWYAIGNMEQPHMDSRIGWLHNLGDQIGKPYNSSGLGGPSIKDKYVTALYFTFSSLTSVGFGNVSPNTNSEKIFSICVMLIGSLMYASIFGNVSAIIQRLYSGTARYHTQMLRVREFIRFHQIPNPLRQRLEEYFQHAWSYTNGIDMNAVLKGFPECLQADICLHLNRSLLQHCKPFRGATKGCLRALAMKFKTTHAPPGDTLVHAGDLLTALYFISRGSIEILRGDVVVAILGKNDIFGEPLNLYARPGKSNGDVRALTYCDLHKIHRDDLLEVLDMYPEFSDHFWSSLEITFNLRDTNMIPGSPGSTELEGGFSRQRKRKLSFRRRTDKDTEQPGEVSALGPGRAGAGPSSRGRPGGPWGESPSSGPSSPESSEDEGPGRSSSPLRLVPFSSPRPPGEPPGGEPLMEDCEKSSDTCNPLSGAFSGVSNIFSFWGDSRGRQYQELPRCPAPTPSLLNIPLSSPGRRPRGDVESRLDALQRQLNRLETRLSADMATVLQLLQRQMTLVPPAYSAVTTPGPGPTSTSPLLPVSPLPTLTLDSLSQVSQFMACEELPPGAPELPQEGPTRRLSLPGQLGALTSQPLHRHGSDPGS
On to `O=C(O)C1CSC(c2ccco2)N1` (centres unmarked), for which the “hERG current change (%, negative = inhibition) at 10uM” value is recorded as 5.11%.

As to `COc1ccc(OCc2nnnn2-c2ccccc2)cc1`, the “hERG current change (%, negative = inhibition) at 10uM” value is 0.624%. `COc1ccc(CNC(=O)c2csc3c2CCCC3)cc1`: the “hERG current change (%, negative = inhibition) at 10uM” value is given as -0.424%.

As to `CCc1nc2ccccc2n1CC(=O)N1CCN(Cc2ccccc2)CC1`, the “hERG current change (%, negative = inhibition) at 10uM” value is listed as -61.5%. The same measure for `CN(C)C(=O)N1CCCC(C(=O)NCc2cccs2)C1` (centres unmarked): 1.62%; for `CCOC(=O)c1cnc(-n2[nH]c(C)cc2=O)[nH]c1=O`: 5.83%; for `CCOC(=O)N1CCC(NC(=O)CC2C(=O)NCCN2Cc2ccccc2F)CC1` (centres unmarked): 11.8%. For `COc1ccccc1NC(=O)N(Cc1cccs1)Cc1cc2cc3c(cc2[nH]c1=O)OCO3`, the “hERG current change (%, negative = inhibition) at 10uM” value is -5.32%.

For `Cc1ccc(-c2ccc(=O)n(Cc3c(F)cccc3Cl)n2)cc1`, the “hERG current change (%, negative = inhibition) at 10uM” value is 9.18%. The value for `COc1ccc2[nH]c3c(c2c1)CCN1C(=O)N([C@@H](C)C(=O)NC2CCCCC2C)C(=O)[C@]31C` (some centres unmarked) was -6.9%; that for `Cc1ccc(N(CC(=O)NC(C)(C)C)C(=O)CS(=O)CC(=O)Nc2ccc(F)cc2)cc1` (centres unmarked) was 20%. As to `O=C1CCc2cc(S(=O)(=O)Nc3ccccc3F)cc3c2N1CCC3`, the “hERG current change (%, negative = inhibition) at 10uM” value is given as -17.9%. As for `Cc1c(C(=O)N2CC(C)OC(C)C2)[nH]c2ccc(Br)cc12` (centres unmarked), the “hERG current change (%, negative = inhibition) at 10uM” value is listed as -9.46%.

Take `CCCC(C)NS(=O)(=O)c1ccccc1` (centres unmarked): the “hERG current change (%, negative = inhibition) at 10uM” value is given as -18.4%. In the case of `Cc1ccc(C)c(N/N=C2\CCCNC2=O)c1`, the “hERG current change (%, negative = inhibition) at 10uM” value is recorded as -25.2%. On to `CCOC(=O)c1sc(=NC(=O)c2ccccc2Br)n(C)c1C`, for which the “hERG current change (%, negative = inhibition) at 10uM” value was -6.52%.

With `CC1(C)Cc2c(sc3c2C(=O)N(c2ccccc2)C2=NCCCN23)CO1`, the “hERG current change (%, negative = inhibition) at 10uM” value is listed as 3.7%. For the compound `O=C(Nc1ccc2oc(-c3cccnc3)nc2c1)c1cc2ccccc2o1`, the “hERG current change (%, negative = inhibition) at 10uM” value is on record as 6.16%.

For the compound `COc1ccc(-c2[nH]ncc2CN2CCC(N3CCSCC3)CC2)c(F)c1`, the “hERG current change (%, negative = inhibition) at 10uM” value is reported as 1.98%.

For `O=C(OCc1ccc(Br)cc1)c1ccncc1`, the “hERG current change (%, negative = inhibition) at 10uM” value is 5.25%.

Regarding `O=C(O)c1cccc(NC(=S)N/N=C/c2c[nH]c3ccccc23)c1`, the “hERG current change (%, negative = inhibition) at 10uM” value worked out at 18%.

Consider `COc1ccc(C(=O)NC(=S)NC(C)C)cc1Br`, for which the “hERG current change (%, negative = inhibition) at 10uM” value is listed as 12.9%. Regarding `NC(=O)C1CCN(CC(O)CSc2ccc(F)cc2)CC1` (centres unmarked), the “hERG current change (%, negative = inhibition) at 10uM” value came to 0.126%.

Take `C#CCOCCOCCOCCNc1nc(N2CCN(C(=O)[C@H]([C@@H](C)CC)n3cc([C@@H](N)CC(C)C)nn3)CC2)nc(N2CCN(C(=O)[C@H](Cc3ccc(O)cc3)n3cc([C@@H](N)C(C)CC)nn3)CC2)n1.Cl` (some centres unmarked): the “hERG current change (%, negative = inhibition) at 10uM” value came out at 2.94%. For the compound `CCN(CC)c1ccc(S(=O)(=O)N2CCOCC2)cc1NC(=O)CN1C(=O)NC2(CCCC2)C1=O`, the “hERG current change (%, negative = inhibition) at 10uM” value is recorded as -26.3%. Turning to `Cc1[nH]nc2c1C(c1ccccn1)N(c1ccc(Br)cc1)C2=O` (centres unmarked), the “hERG current change (%, negative = inhibition) at 10uM” value was -23.4%. For the compound `Cc1cccc(OCCCCCn2ccnc2)c1`, the “hERG current change (%, negative = inhibition) at 10uM” value is reported as -21.7%. The value for `CCOc1ccc(-c2nc3n(c(=O)c2C#N)CCS3)cc1` was 11.8%.

As to `Cc1cccc(NC(=O)C(C)SCc2nc3sc4c(c3c(=O)[nH]2)CCCC4)n1` (centres unmarked), the “hERG current change (%, negative = inhibition) at 10uM” value was -6.66%. In the case of `CN(C)/C=C1\C(=O)NN=C1C(F)(F)F`, the “hERG current change (%, negative = inhibition) at 10uM” value is reported as 4.44%. For `COc1ccc(OCc2nnc(SCC(=O)Nc3ccccc3C#N)o2)cc1`, the “hERG current change (%, negative = inhibition) at 10uM” value is recorded as -22.5%. In the case of `Cc1ccc(S(=O)(=O)n2nccc2-c2c(-c3ccc(Cl)cc3)noc2C)cc1`, the “hERG current change (%, negative = inhibition) at 10uM” value is recorded as 4.61%. The value for `COC(=O)CCC(=O)Nc1sc(C)c(C)c1C(N)=O` was 19.3%; that for `CS(=O)(=O)NCCCCCCNS(C)(=O)=O` was 2.81%. The value for `COc1ccc(OCC(N)=O)cc1` was 8.9%; that for `OCC12COC3c4ccccc4C(OC1)N32` (centres unmarked) was 4.86%; that for `O=C(O)c1cccc(N/N=C/c2cccs2)c1` was -7.16%. `COc1ccc(C(=O)C2CCCN(C(=O)CCNC(C)=O)C2)cc1OC` (centres unmarked): the “hERG current change (%, negative = inhibition) at 10uM” value was found to be 20.3%. The same measure for `Cc1ccc(C)c(NC(=O)Cc2nc(CCl)cs2)c1`: -14.1%; for `Cc1ccc(F)cc1NC(=O)C12CC3CC(C1)CC(n1cnc([N+](=O)[O-])n1)(C3)C2`: -52.8%. The value for `O=C(CSc1nc(Nc2ccccc2)nc(N2CCOCC2)n1)Nc1cccc([N+](=O)[O-])c1` was 6.17%; that for `COc1ccc(NS(=O)(=O)c2cccc(Cl)c2)cc1S(=O)(=O)N1CCCCC1` was 7.81%. The same measure for `CCOC(=O)C1=C(C)Nc2ncnn2C1c1ccc2c(c1)OCO2` (centres unmarked): 1.81%; for `O=C(O)CCCCCCC1C(=O)NC(=O)N1CCC(O)C1CCCCC1` (centres unmarked): -6.49%.

These data come from paper PMC4336329 (PLoS ONE, 2015).
